# PubChem BioAssay AID624173 (National Center for Advancing Translational Sciences (NCATS), 2012)
# In all, about 410,000 compounds went through this assay and about 490 (0.12%) were called active. This list was built around the results that the source calls inconclusive (neither active nor inactive); the mix of calls is not that of the screen. The call rests on the fitted dose curve; in most records, active means well fitted inhibition curve with a large enough effect; inconclusive means small, poorly fitted or top-dose-only effect; inactive means flat fitted curve, though single readings scatter. Where the call is inconclusive, the potency comes from a doubtful curve fit.
# Molecular target: pyruvate kinase (Trypanosoma brucei) (UniProt Q57TT1)
# Assay: qHTS of Trypanosoma Brucei Inhibitors; further: nearly all actives have a fitted effect of over 50% in size
# Conditions: TbPYK enzyme, Kinase-Glo Plus ATP luminescence, 45 min; series mostly up to 76.8 µM
# In short: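 Readout: single end-point luminescence (Kinase-Glo Plus, 10 min). Reaction conditions were TbPYK/substrate plus 130 uM ADP, 45 min at RT, pH 7.2 TEA buffer. No-enzyme wells served as controls, and data were normalized before concentration-response fitting.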
# Potency means the concentration at half of the fitted maximal effect; tags describe the fitted curve by direction and shape.
row,SMILES,Potency
1,CCN(CC)c1ccc2nc3ccccc3[n+](CC)c2c1,"inconclusive: 22.4 µM [inhibitor, partial curve]"
2,CCOC(=O)C1=C(C)N=c2s/c(=C/c3cccc([N+](=O)[O-])c3O)c(=O)n2C1c1ccccc1 (configuration not stated),"inconclusive: 14.1 µM [inhibitor, partial curve]"
3,Cc1ccc(OCCN2C(=O)S/C(=C\c3ccc(C)o3)C2=O)cc1,"inconclusive: 35.5 µM [inhibitor, partial curve, poor fit]"
4,COC(=O)NC(Nc1sc2c(c1C(N)=O)CCCC2)(C(=O)OC)C(F)(F)F (configuration not stated),"inconclusive: 25.1 µM [inhibitor, single point]"
5,Oc1[nH]c2ccc(Br)cc2c1N=NC(=S)N1CCOCC1,"inconclusive: 1 µM [inhibitor, full curve, poor fit]"
6,Cc1cc(C)cc(NC(=O)Cn2c(-c3cncs3)nc3ccccc32)c1,inactive
7,CCCN=C(N)/C(C(=O)OCC)=C(\O)c1ccc(OC)cc1,"inconclusive: 50.1 µM [inhibitor, single point]"
8,CC1CCc2c(sc(Nc3nc4c(F)cccc4s3)c2C(N)=O)C1 (configuration not stated),"inconclusive: 10 µM [inhibitor, partial curve, poor fit]"
9,Fc1cccc(-c2n[nH]c(=S)n2-c2ccccc2)c1,"inconclusive: 31.6 µM [inhibitor, partial curve]"
10,CC(=O)Nc1nonc1-c1nnc(SCC(=O)Nc2ccc(C)cc2)n1-c1ccccc1,inactive
11,CCN(CC)CCn1c2ccccc2c2n[nH]c(=S)nc21,"inconclusive: 50.1 µM [inhibitor, single point]"
12,O=C(Cn1nnc(-c2ccncc2)n1)N(C1CCCCC1)C1CCCCC1,"inconclusive: 3.16 µM [inhibitor, partial curve, poor fit]"
13,COC(=O)c1ccc2c(c1)NC(=O)C1CCCN21 (configuration not stated),"inconclusive: 28.2 µM [inhibitor, single point]"
14,COc1ccc(CCN(C)C(=O)COC(=O)/C=C/c2ccc(C)o2)cc1OC,"inconclusive: 22.4 µM [inhibitor, partial curve]"
15,O=S(=O)(NCCC(c1ccc(F)cc1)c1ccco1)c1ccccc1 (configuration not stated),"inconclusive: 35.5 µM [inhibitor, partial curve, poor fit]"
16,COc1ccc(Cn2c(O)c(C=Nc3ccc(OC)cc3)c3ccccc3c2=O)cc1,inactive
17,CN1C(=O)C(=Cc2ccc(N3CCCCCC3)o2)C(=O)N(C)C1=S,"inconclusive: 22.4 µM [inhibitor, partial curve, poor fit]"
18,CCOC(=O)CSCCOc1ccc(C=C2C(=O)NC(=O)NC2=O)cc1OC,"inconclusive: 28.2 µM [inhibitor, partial curve]"
19,Cc1ccc(C(=O)Nc2ccc3c(c2)OCO3)o1,"inconclusive: 50.1 µM [inhibitor, single point]"
20,CCC(C)(C)n1nnnc1C(c1cc2cc(C)cc(C)c2[nH]c1=O)N1CCN(C(=O)c2ccco2)CC1 (configuration not stated),inactive
21,CCOC(=O)c1ccc(NC(=O)CN2CCN(CCN=CC3=C(O)CC(C)(C)CC3=O)CC2)cc1,inactive

row,SMILES,Potency
1,COc1cc(/C=C2\C(=O)N(CCC#N)N=C2C)ccc1OCC(=O)Nc1ccccc1,"inconclusive: 35.5 µM [inhibitor, partial curve, poor fit]"
2,O=C(COC(=O)c1ccco1)NCc1ccccc1Cl,"inconclusive: 31.6 µM [inhibitor, single point]"
3,COc1cccc(NC(=O)NC2(C(F)(F)F)Oc3ccccc3O2)c1,inactive
4,CCOc1ccccc1N1CCN(Cc2cccc(OC)c2O)CC1,inactive
5,CN(C)S(=O)(=O)c1cccc(-c2nnc(SCC(=O)NCCCCCC(=O)O)n2-c2ccc(F)cc2)c1,"inconclusive: 22.4 µM [inhibitor, partial curve]"
6,CC(C)c1ccc(/C=N/n2c(-c3ccccc3)n[nH]c2=S)cc1,"inconclusive: 11.2 µM [inhibitor, partial curve]"
7,COc1ccc(-n2c(=O)c3c4c(sc3n3c(=S)[nH]nc23)CCCC4)cc1,"inconclusive: 14.1 µM [inhibitor, partial curve]"
8,c1cc2cc(CNc3nc(NCC4CC4)nc4ccsc34)ccc2o1,inactive
9,S=c1[nH]cc(Cc2ccccc2)s1,"inconclusive: 20 µM [inhibitor, partial curve]"
10,O=C(NCc1n[nH]c(=S)n1-c1cccc(Cl)c1)c1cccs1,"inconclusive: 15.8 µM [inhibitor, partial curve, poor fit]"
11,O=[N+]([O-])/C=C/c1c(Cl)cccc1Cl,"inconclusive: 25.1 µM [inhibitor, partial curve]"
12,CC[n+]1c(/C=C(/C)SC)sc2ccccc21,inactive
13,CCOC(=O)N1CCC(N2Cc3cccc(C(=O)Nc4ccc(N(CC)CC)cc4C)c3C2=O)CC1,"inconclusive: 35.5 µM [inhibitor, partial curve, poor fit]"
14,CCOC(=O)/C(=N\Nc1ccc(Cl)cc1)Sc1nnc(-c2ccc(OC)cc2)n1C,"inconclusive: 25.1 µM [inhibitor, partial curve]"
15,COc1cc(OC)c(C(=O)Nc2ccc(N(C)C)cc2)cc1OC,"inconclusive: 44.7 µM [inhibitor, partial curve, poor fit]"
16,Cc1ccc2oc(C(=O)N(C)Cc3ccc(C)o3)c(C)c2c1,"inconclusive: 39.8 µM [inhibitor, partial curve, poor fit]"
17,Cc1ccc(NS(=O)(=O)c2ccc(C(=O)NCc3cccnc3)cc2)cc1,inactive
18,COc1cccc(N/N=C/c2cccc(Br)c2O)c1,inactive
19,O=C(CCCCn1cnc2c(=S)nc[nH]c21)Nc1ccc(C(=O)O)cc1,"inconclusive: 25.1 µM [inhibitor, partial curve, poor fit]"
20,CCCNC(=O)CSc1ccc(S(=O)(=O)N2CCCC2)cn1,"inconclusive: 39.8 µM [inhibitor, partial curve, poor fit]"
21,CCN(CC)S(=O)(=O)c1ccc2oc(C(=O)O)c(C)c2c1,"inconclusive: 44.7 µM [inhibitor, single point]"
